# Data reported in PMC6769256.
# Sequences of proteins named here, by UniProt entry; tags and fusion partners are left off.
# UniProt P11940: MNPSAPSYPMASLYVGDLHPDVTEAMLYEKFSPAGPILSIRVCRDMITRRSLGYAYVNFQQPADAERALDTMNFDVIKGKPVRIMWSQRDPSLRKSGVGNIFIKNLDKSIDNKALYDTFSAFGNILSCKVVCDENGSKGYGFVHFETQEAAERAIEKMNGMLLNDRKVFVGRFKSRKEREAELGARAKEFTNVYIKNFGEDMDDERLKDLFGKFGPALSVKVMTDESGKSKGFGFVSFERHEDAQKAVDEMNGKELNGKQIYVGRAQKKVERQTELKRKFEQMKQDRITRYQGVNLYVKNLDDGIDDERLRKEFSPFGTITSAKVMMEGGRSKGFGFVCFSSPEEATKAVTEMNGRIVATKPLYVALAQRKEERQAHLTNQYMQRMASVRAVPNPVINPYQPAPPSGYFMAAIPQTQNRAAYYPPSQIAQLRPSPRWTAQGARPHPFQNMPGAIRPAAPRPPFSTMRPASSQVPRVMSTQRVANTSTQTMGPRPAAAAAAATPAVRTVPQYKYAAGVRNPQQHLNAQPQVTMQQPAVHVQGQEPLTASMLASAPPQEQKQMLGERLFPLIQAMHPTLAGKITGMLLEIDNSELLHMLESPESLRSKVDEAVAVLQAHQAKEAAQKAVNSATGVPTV
# No constants are given. Whether binding was seen depends on the method and setting. In cells and extracts the contact can be indirect. Some entries that bind do so weakly or less than the wild type. For some assays here: Tags and fused reporters may be left off the sequences shown.
# T1: GFP-tagged Hs HELZ-C (residues P1051-K1942) (human) (UniProt P42694)
# T1 sequence: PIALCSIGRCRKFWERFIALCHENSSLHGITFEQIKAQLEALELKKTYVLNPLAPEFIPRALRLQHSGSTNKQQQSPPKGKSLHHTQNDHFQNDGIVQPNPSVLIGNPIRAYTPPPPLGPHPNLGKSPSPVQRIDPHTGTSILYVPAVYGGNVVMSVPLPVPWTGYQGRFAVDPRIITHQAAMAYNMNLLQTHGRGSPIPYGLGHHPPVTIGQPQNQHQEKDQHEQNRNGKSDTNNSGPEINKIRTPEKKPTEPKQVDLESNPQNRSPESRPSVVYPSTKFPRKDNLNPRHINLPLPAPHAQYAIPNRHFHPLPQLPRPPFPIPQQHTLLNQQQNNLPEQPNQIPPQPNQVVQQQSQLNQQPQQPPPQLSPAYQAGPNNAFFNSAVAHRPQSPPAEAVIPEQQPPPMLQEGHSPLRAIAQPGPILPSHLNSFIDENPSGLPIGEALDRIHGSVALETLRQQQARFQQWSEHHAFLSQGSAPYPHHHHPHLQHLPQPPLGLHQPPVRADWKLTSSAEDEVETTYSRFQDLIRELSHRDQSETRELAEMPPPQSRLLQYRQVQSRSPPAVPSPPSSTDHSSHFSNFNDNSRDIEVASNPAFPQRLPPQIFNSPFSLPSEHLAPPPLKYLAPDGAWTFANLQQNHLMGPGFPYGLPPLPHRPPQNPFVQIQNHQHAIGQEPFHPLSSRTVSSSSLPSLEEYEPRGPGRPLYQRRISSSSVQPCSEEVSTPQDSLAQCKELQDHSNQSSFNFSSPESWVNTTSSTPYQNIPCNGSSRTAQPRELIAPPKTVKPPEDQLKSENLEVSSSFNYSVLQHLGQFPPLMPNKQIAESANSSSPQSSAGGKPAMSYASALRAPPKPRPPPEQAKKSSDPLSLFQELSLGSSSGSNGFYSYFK
# T2: GFP-tagged Hs HELZ-N (residues M1-D1050) (human) (UniProt P42694)
# T2 sequence: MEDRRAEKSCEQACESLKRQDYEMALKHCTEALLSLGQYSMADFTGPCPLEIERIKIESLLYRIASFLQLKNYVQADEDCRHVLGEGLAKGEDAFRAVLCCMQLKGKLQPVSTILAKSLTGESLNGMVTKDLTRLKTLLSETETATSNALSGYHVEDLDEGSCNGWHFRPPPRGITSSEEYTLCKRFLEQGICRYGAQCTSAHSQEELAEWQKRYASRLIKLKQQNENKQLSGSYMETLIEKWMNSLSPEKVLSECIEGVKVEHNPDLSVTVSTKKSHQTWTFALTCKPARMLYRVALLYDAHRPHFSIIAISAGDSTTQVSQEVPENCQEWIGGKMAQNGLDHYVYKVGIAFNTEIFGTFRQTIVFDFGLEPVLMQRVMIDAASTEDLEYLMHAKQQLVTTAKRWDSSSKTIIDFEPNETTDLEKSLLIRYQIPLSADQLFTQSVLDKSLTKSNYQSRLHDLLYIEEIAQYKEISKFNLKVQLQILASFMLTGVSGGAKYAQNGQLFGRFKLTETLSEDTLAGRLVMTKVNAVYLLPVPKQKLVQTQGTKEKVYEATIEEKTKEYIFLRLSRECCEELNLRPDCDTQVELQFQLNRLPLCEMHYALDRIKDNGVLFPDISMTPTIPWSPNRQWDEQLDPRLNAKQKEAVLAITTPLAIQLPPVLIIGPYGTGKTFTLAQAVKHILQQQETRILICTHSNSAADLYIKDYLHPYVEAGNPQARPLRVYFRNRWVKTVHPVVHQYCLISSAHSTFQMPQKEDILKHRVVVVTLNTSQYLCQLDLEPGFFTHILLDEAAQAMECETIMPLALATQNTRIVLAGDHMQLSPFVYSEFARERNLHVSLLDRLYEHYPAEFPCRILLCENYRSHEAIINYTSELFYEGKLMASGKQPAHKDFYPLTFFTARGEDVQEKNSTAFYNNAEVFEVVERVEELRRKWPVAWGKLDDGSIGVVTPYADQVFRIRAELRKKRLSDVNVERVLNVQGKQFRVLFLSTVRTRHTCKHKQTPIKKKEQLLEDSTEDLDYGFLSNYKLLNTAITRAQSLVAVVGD
# T3: GFP-tagged Hs HELZ (helicase with zinc-finger), full-length (human), P42694
# T3 chain: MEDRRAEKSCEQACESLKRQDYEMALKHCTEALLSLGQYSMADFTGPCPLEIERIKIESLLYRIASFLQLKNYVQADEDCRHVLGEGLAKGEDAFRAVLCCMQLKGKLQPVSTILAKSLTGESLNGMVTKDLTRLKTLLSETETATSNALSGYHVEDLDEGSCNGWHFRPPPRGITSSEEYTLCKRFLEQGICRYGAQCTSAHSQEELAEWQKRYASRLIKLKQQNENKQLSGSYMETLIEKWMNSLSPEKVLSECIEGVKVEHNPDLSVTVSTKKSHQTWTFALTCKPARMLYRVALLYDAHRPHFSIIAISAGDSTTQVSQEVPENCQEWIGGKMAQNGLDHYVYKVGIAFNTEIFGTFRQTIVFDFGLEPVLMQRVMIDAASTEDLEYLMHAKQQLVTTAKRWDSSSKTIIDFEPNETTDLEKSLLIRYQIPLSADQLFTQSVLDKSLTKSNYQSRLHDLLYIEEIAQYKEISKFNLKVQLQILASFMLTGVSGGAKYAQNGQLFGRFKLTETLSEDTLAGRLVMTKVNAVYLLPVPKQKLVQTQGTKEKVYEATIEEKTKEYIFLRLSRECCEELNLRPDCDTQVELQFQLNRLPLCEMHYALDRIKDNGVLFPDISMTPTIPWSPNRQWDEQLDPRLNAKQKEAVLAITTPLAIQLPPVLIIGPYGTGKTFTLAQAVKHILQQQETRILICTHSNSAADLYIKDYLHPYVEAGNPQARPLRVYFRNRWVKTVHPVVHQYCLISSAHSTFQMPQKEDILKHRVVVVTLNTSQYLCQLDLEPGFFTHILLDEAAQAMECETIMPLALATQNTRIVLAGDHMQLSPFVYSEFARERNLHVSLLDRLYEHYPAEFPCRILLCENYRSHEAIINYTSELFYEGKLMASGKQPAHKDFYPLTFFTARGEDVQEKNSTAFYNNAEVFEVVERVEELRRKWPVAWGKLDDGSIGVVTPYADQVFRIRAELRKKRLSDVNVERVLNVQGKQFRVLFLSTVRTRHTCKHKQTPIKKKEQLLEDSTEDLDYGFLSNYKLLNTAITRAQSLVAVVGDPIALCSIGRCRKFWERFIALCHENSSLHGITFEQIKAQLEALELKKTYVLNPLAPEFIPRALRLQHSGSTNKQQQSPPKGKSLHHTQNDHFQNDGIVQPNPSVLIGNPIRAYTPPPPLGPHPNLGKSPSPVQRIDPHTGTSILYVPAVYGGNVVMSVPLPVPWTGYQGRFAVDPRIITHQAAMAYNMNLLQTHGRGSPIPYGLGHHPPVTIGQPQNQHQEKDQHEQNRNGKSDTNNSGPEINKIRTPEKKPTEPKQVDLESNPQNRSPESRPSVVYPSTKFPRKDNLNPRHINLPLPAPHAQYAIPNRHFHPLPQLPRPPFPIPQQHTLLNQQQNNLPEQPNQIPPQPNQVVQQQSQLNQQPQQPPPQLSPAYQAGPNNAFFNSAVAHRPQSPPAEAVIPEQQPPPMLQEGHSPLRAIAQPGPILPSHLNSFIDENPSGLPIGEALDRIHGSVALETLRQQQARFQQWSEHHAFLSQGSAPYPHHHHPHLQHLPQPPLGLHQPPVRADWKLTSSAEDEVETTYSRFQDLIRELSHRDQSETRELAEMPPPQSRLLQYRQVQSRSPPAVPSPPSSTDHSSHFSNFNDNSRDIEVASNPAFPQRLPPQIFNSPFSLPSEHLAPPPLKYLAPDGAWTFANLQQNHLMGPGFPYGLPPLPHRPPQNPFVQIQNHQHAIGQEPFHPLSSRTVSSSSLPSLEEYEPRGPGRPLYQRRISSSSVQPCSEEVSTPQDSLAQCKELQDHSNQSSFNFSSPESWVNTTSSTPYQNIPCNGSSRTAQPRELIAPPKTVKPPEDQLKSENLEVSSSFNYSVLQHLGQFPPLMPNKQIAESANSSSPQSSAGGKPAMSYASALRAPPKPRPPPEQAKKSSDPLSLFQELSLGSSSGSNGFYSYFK
# B1: HA-tagged Hs DDX6, P26196 1-483 (protein)
# chain: MSTARTENPVIMGLSSQNGQLRGPVKPTGGPGGGGTQTQQQMNQLKNTNTINNGTQQQAQSMTTTIKPGDDWKKTLKLPPKDLRIKTSDVTSTKGNEFEDYCLKRELLMGIFEMGWEKPSPIQEESIPIALSGRDILARAKNGTGKSGAYLIPLLERLDLKKDNIQAMVIVPTRELALQVSQICIQVSKHMGGAKVMATTGGTNLRDDIMRLDDTVHVVIATPGRILDLIKKGVAKVDHVQMIVLDEADKLLSQDFVQIMEDIILTLPKNRQILLYSATFPLSVQKFMNSHLQKPYEINLMEELTLKGVTQYYAYVTERQKVHCLNTLFSRLQINQSIIFCNSSQRVELLAKKISQLGYSCFYIHAKMRQEHRNRVFHDFRNGLCRNLVCTDLFTRGIDIQAVNVVINFDFPKLAETYLHRIGRSGRFGHLGLAINLITYDDRFNLKSIEEQLGTEIKPIPSNIDKSLYVAEYHSEPVEDEKP
# Experiments:
# [1] = molecular target: GFP-tagged Hs HELZ (helicase with zinc-finger), full-length (human) (UniProt P42694); test: co-IP; GFP immunoprecipitation from HEK293T cells transfected with GFP-tagged HELZ (full-length, fragments or F1107V); endogenous NOT1, NOT3, PABPC1 detected by Western blot; lysates treated with RNase A before IP
# [2] = molecular target: GFP-tagged Hs HELZ F1107V mutant (human) (UniProt P42694); test: as above
# [3] = molecular target: T1, GFP-tagged Hs HELZ-C (residues P1051-K1942) (human); test: as above
# [4] = molecular target: T2, GFP-tagged Hs HELZ-N (residues M1-D1050) (human); test: as above
# [5] = molecular target: T3, GFP-tagged Hs HELZ (helicase with …); test: co-IP; GFP immunoprecipitation from HEK293T cells co-transfected with GFP-Hs HELZ (bait) and an HA-tagged protein; lysates treated with RNase A before IP; Western blot; settings: remark: other sources report otherwise
Molecule,binding [1],binding [2],binding [3],binding [4],binding [5]
endogenous cytoplasmic polyadenylate-binding protein 1 (PABPC1) (from UniProt P11940 1-636),binds,no binding,binds,no binding,
B1,,,,,no binding
